Measured values taken from the supplement of paper PMC10369915.
The list shows a part of the results. Rule as the data show it: active = 3.2 or more and inactive = the rest. Only a few entries rise above the background.

target: SHP2 C-SH2 domain E139D; assay: enrichment score (SH2-bound / input frequency) (ratio); bacterial display of known human phosphotyrosine sites (pTyr-Var adds point mutants) read by sequencing; higher = stronger binding; tyrosines were phosphorylated by kinases first; conditions: peptide library: pTyr-Var
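Also: displayed peptides selected on beads carrying the immobilized SH2 domain, with library peptides lacking any tyrosine serving as negative controls.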

Enrichment score, inactive:
MNKNAYHNVTT [ST3GAL6_Y306_A311T] 0.654, SVCPDYDLCSI [SQSTM1_Y148_V153I] 1.34, ELCSEYRKSRK [SPINK5_Y440] 0.623, KDHPDYEYQPR [SOX9_Y172_K173E] 0.532, RGKDSYETSQL [SPP1_Y225] 0.497, CNNFICGGCRG [SPINT2_Y163_Y163C] 0.802, FVSAAYVKKLD [SPTAN1_Y1020_P1017S] 0.991, IPPRRYFCSGV [STAMBP_Y36_R38C] 0.504, QDRTYYERVRT [SPEN_Y633_S635R] 0.571, ADFPDCKFRPR [SOX11_Y116_Y116C_YF] 0.638, TDTAAYEERVR [SPTB_Y474] 0.465, EAMPDYKKQLR [SPATA18_Y229_S227P] 0.805, KEAALYPHLPP [SQSTM1_Y383] 0.687, KDHPDYEFQPR [SOX9_Y172_K173E_YF] 0.587, QDRTFYERVRT [SPEN_Y633_S635R_YF] 0.758, SASRSYSRSRS [SRRM4_Y549] 0.228, QQLVAYFSKHT [SRC_Y232_A237T_YF] 1.85, SRPTQYSSFAC [SPEM2_Y104_S108A] 0.765, NLTVNYKKNLI [SQOR_Y259] 0.569

target: SHP2 C-SH2 domain wild-type; assay: as above; conditions: peptide library: pTyr-Var

Enrichment score, inactive:
MNKNAYHNVTT [ST3GAL6_Y306_A311T] 0.587, SVCPDYDLCSI [SQSTM1_Y148_V153I] 1.03, ELCSEYRKSRK [SPINK5_Y440] 0.441, KDHPDYEYQPR [SOX9_Y172_K173E] 0.582, RGKDSYETSQL [SPP1_Y225] 0.534, CNNFICGGCRG [SPINT2_Y163_Y163C] 0.83, FVSAAYVKKLD [SPTAN1_Y1020_P1017S] 0.601, IPPRRYFCSGV [STAMBP_Y36_R38C] 0.381, QDRTYYERVRT [SPEN_Y633_S635R] 1.07, ADFPDCKFRPR [SOX11_Y116_Y116C_YF] 0.71, TDTAAYEERVR [SPTB_Y474] 0.371, EAMPDYKKQLR [SPATA18_Y229_S227P] 0.848, KEAALYPHLPP [SQSTM1_Y383] 0.826, KDHPDYEFQPR [SOX9_Y172_K173E_YF] 0.528, QDRTFYERVRT [SPEN_Y633_S635R_YF] 1.8, SASRSYSRSRS [SRRM4_Y549] 0.25, QQLVAYFSKHT [SRC_Y232_A237T_YF] 1.77, SRPTQYSSFAC [SPEM2_Y104_S108A] 0.874, NLTVNYKKNLI [SQOR_Y259] 0.636

target: SHP2 N-SH2 domain L43F; assay: as above; conditions: peptide library: pTyr-Var

Enrichment score, inactive:
MNKNAYHNVTT [ST3GAL6_Y306_A311T] 0.502, SVCPDYDLCSI [SQSTM1_Y148_V153I] 1.29, ELCSEYRKSRK [SPINK5_Y440] 0.367, KDHPDYEYQPR [SOX9_Y172_K173E] 0.536, RGKDSYETSQL [SPP1_Y225] 0.577, CNNFICGGCRG [SPINT2_Y163_Y163C] 0.731, FVSAAYVKKLD [SPTAN1_Y1020_P1017S] 0.833, IPPRRYFCSGV [STAMBP_Y36_R38C] 0.428, QDRTYYERVRT [SPEN_Y633_S635R] 0.588, ADFPDCKFRPR [SOX11_Y116_Y116C_YF] 0.572, TDTAAYEERVR [SPTB_Y474] 0.298, EAMPDYKKQLR [SPATA18_Y229_S227P] 0.743, KEAALYPHLPP [SQSTM1_Y383] 0.766, KDHPDYEFQPR [SOX9_Y172_K173E_YF] 0.588, QDRTFYERVRT [SPEN_Y633_S635R_YF] 0.524, SASRSYSRSRS [SRRM4_Y549] 0.306, QQLVAYFSKHT [SRC_Y232_A237T_YF] 1.77, SRPTQYSSFAC [SPEM2_Y104_S108A] 0.62, NLTVNYKKNLI [SQOR_Y259] 0.654

target: SHP2 N-SH2 domain T42A; assay: as above; conditions: peptide library: pTyr-Var

Enrichment score, inactive:
MNKNAYHNVTT [ST3GAL6_Y306_A311T] 0.594, SVCPDYDLCSI [SQSTM1_Y148_V153I] 1.07, ELCSEYRKSRK [SPINK5_Y440] 0.426, KDHPDYEYQPR [SOX9_Y172_K173E] 0.424, RGKDSYETSQL [SPP1_Y225] 0.721, CNNFICGGCRG [SPINT2_Y163_Y163C] 0.716, FVSAAYVKKLD [SPTAN1_Y1020_P1017S] 0.697, IPPRRYFCSGV [STAMBP_Y36_R38C] 0.402, QDRTYYERVRT [SPEN_Y633_S635R] 1.21, ADFPDCKFRPR [SOX11_Y116_Y116C_YF] 0.499, TDTAAYEERVR [SPTB_Y474] 0.514, EAMPDYKKQLR [SPATA18_Y229_S227P] 0.698, KEAALYPHLPP [SQSTM1_Y383] 0.534, KDHPDYEFQPR [SOX9_Y172_K173E_YF] 0.536, QDRTFYERVRT [SPEN_Y633_S635R_YF] 1.04, SASRSYSRSRS [SRRM4_Y549] 0.28, QQLVAYFSKHT [SRC_Y232_A237T_YF] 1.39, SRPTQYSSFAC [SPEM2_Y104_S108A] 0.649, NLTVNYKKNLI [SQOR_Y259] 0.722

target: SHP2 N-SH2 domain T52S; assay: as above; conditions: peptide library: pTyr-Var

Enrichment score, inactive:
MNKNAYHNVTT [ST3GAL6_Y306_A311T] 0.585, SVCPDYDLCSI [SQSTM1_Y148_V153I] 1.05, ELCSEYRKSRK [SPINK5_Y440] 0.511, KDHPDYEYQPR [SOX9_Y172_K173E] 0.457, RGKDSYETSQL [SPP1_Y225] 0.505, CNNFICGGCRG [SPINT2_Y163_Y163C] 0.815, FVSAAYVKKLD [SPTAN1_Y1020_P1017S] 0.612, IPPRRYFCSGV [STAMBP_Y36_R38C] 0.457, QDRTYYERVRT [SPEN_Y633_S635R] 0.447, ADFPDCKFRPR [SOX11_Y116_Y116C_YF] 0.549, TDTAAYEERVR [SPTB_Y474] 0.5, EAMPDYKKQLR [SPATA18_Y229_S227P] 0.815, KEAALYPHLPP [SQSTM1_Y383] 0.797, KDHPDYEFQPR [SOX9_Y172_K173E_YF] 0.515, QDRTFYERVRT [SPEN_Y633_S635R_YF] 0.553, SASRSYSRSRS [SRRM4_Y549] 0.239, QQLVAYFSKHT [SRC_Y232_A237T_YF] 2, SRPTQYSSFAC [SPEM2_Y104_S108A] 0.657, NLTVNYKKNLI [SQOR_Y259] 0.679

target: SHP2 N-SH2 domain wild-type; assay: as above; conditions: peptide library: pTyr-Var

Enrichment score, inactive:
MNKNAYHNVTT [ST3GAL6_Y306_A311T] 0.757, SVCPDYDLCSI [SQSTM1_Y148_V153I] 1.09, ELCSEYRKSRK [SPINK5_Y440] 0.312, KDHPDYEYQPR [SOX9_Y172_K173E] 0.56, RGKDSYETSQL [SPP1_Y225] 0.737, CNNFICGGCRG [SPINT2_Y163_Y163C] 0.855, FVSAAYVKKLD [SPTAN1_Y1020_P1017S] 0.907, IPPRRYFCSGV [STAMBP_Y36_R38C] 0.44, QDRTYYERVRT [SPEN_Y633_S635R] 0.821, ADFPDCKFRPR [SOX11_Y116_Y116C_YF] 0.731, TDTAAYEERVR [SPTB_Y474] 0.541, EAMPDYKKQLR [SPATA18_Y229_S227P] 0.882, KEAALYPHLPP [SQSTM1_Y383] 0.905, KDHPDYEFQPR [SOX9_Y172_K173E_YF] 0.721, QDRTFYERVRT [SPEN_Y633_S635R_YF] 0.793, SASRSYSRSRS [SRRM4_Y549] 0.32, QQLVAYFSKHT [SRC_Y232_A237T_YF] 1.9, SRPTQYSSFAC [SPEM2_Y104_S108A] 0.8, NLTVNYKKNLI [SQOR_Y259] 1.18
